Source: patent US7018641B1, “Materials and methods for the control of plant pathogens” (priority 2000, dated 2006)

Legend:
Test in all cases: Greenhouse test, tomato in pathogen-infested soil treated before planting
Conditions in all cases: in words
Phytophthora capsici = tested on: Phytophthora capsici
Pythium aphanidermatum = tested on: Pythium aphanidermatum
Athelia rolfsii = type: in vivo
[1] = tested on: Fusarium oxysporum f. sp. lycopersici

Measured: infection of tomato roots and subsequent root rot

CC(C)=CCC/C(C)=C/CO [Geraniol, geraniol]
reduced or eliminated: all assays above
